48 compounds from PMC6919601, “Identification of Plasmodium dipeptidyl aminopeptidase allosteric inhibitors by high throughput screening” (PLoS ONE, 2019) can be followed below.

SMILES strings stand for the structures. Hit rate of the full screen: of about 110,000 compounds, about 230 (0.21%) showed an effect of 50% or more. This is one part of the list.
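Further: 30 min substrate incubation versus DMSO and 10 µM JCP410 controls.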

Chain of DPAP1 (Q8IIJ9 whole entry, looked up): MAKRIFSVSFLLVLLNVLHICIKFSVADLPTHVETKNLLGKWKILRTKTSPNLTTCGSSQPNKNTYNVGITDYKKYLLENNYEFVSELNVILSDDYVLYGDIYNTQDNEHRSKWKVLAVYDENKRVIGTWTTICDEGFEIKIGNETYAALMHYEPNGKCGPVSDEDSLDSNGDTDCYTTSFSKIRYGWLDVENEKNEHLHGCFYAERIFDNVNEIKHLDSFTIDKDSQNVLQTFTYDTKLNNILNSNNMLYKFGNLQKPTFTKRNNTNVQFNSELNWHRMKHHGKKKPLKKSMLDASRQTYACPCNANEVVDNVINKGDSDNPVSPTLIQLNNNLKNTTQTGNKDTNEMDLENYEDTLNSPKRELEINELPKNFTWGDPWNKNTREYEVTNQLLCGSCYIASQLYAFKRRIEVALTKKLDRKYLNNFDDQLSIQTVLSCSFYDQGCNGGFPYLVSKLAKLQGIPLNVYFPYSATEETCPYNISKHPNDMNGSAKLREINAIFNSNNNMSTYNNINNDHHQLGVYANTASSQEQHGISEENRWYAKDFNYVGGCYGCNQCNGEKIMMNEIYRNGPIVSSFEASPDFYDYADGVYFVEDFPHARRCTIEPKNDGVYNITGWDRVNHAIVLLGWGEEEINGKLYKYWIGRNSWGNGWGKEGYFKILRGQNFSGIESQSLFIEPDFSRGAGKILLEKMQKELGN

The test concerns the target DPAP1 (Plasmodium falciparum, UniProt Q8IIJ9). In words: primary screen, percent inhibition; read by cleavage of a fluorogenic dipeptide substrate; higher = more effect of the substance. Further details: species or system P. falciparum D10 trophozoite lysates; single well.
With `O=C(COc1ccc(S(=O)(=O)NC2CCCCC2)cc1)NC1CCCC1`, the “% Inhibition @ 10 uM” value is on record as -0.48%.
Under `CN1CCCN(C2CCCCCC2)CC1` stands 1.29%; under `N#CCNC(=O)[C@H](CS(=O)(=O)Cc1ccc(C(=O)O)cc1)NC(=O)c1ccccc1`, -0.214%.
Under `Cc1ccc(-n2ncc(C(=O)N3CCCCC3)c2NC(=O)c2ccco2)cc1C` stands -5.13%; under `CN(C)c1ccc(CN2CCN(c3ncccn3)CC2)cc1`, 3.1%.
The result for `Cc1ccc(NC(=O)C2CC(=O)N(c3ccc(Cl)cc3)C2)cc1C` (stereo not drawn) reads 3.53%; that for `O=C(O)c1ccc(CNC(=O)C2CCCCC2C(=O)O)cc1` (stereo not drawn), 5.99%.
Turning to `CC1(C)CC(=O)/C(=C/c2ccco2)CO1`, the “% Inhibition @ 10 uM” value is recorded as 4.66%.
The result for `CC1CCCCC1NC(=O)Cn1ncn2nc(-c3cccs3)cc2c1=O` (stereo not drawn) reads -2.85%; that for `Cc1cccc(NC(=O)c2cccc(OCc3ccccc3)c2)n1`, 9.19%; that for `Cc1c(CNC2CCC(C)CC2)c(C(=O)O)c(C)n1Cc1ccc(F)cc1Cl` (stereo not drawn), -0.439%.
Take `O=C(CCn1nc(-c2ccccc2)ccc1=O)N1CCN(c2ccccn2)CC1`: the “% Inhibition @ 10 uM” value amounted to 1.62%.
As for `Cc1cc(C)c(S(=O)(=O)Nc2ccc(S(=O)(=O)NC(C)(C)C)cc2)c(C)c1`, the “% Inhibition @ 10 uM” value is -7.23%.
The result for `COCc1noc2c1C(c1cccc(Br)c1)C(C#N)=C(N)N2` (stereo not drawn) reads -2.8%; that for `COC(=O)C1=C(C)N(Cc2cccnc2)C(=O)/C1=C\c1cc(OC)c(OC)c(OC)c1`, 2.7%.
Under `O=C(Nc1ccccc1F)c1cccc(C(=O)Nc2ccccc2F)c1` stands -4.4%.
Under `CC1=C(C(=O)NCCc2ccc(Cl)cc2)C2(CCC(C)CC2)OC1=O` (stereo not drawn) stands 3.19%.
As for `Oc1ccc(C2N=C(c3ccccc3)NC(c3ccccc3)=N2)cc1`, the “% Inhibition @ 10 uM” value is -2.66%.
The result for `COc1ccc(Br)cc1CNC(=O)CN(C)c1nn2c(=O)cc(C)nc2s1` reads -3.79%; that for `CCOc1ccc(-c2[nH]c3c(C#N)cnn3c2NC2CCC(C)CC2)cc1` (stereo not drawn), -1.11%.
Under `CCOC(=O)c1c(NC(=O)/C(C#N)=C\c2ccco2)sc2c1CCCC2` stands 6.11%; under `O=C(c1cc2nc(-c3cccs3)cc(C(F)(F)Cl)n2n1)N1CCSCC1`, 4%.
Under `O=C(Cn1cnc2ccc(Cl)cc2c1=O)Nc1ccc2c(c1)OCO2` stands -3.04%; under `COc1ccc(C2C(C#N)=C(N)Oc3cc4c(cc32)OCO4)cc1Cl` (stereo not drawn), 2.51%.
On to `COCCNC(=O)C(CCS(C)(=O)=O)N1Cc2ccccc2C1=O` (stereo not drawn), for which the “% Inhibition @ 10 uM” value is listed as -2.69%.
For `COC(=O)Nc1c(-c2ccccc2)nc2ccc(Cl)cn12`, the “% Inhibition @ 10 uM” value turned out to be 6.76%.
The result for `CCSC1=C(C#N)C(c2ccc(C)cc2)C2=C(O)CCCC2=N1` (stereo not drawn) reads -3.21%; that for `CN(C)CCNC1CCN(CCc2ccccc2)CC1`, 4.75%; that for `CC1CN(c2nc3ccccc3nc2SCC(=O)NCCc2ccccc2)CC(C)O1` (stereo not drawn), 0.032%.
Take `C=CCSc1nc(=O)c2c(n1C)NC(=O)CC2c1cccc(F)c1F` (stereo not drawn): the “% Inhibition @ 10 uM” value is reported as -1.11%.
The result for `O=C(COc1ccc(C(=O)Nc2cccc(C(F)(F)F)c2)cc1)Nc1ccc(F)cc1` reads -2.09%; that for `C=CCNC(=O)C(=O)NCc1ccc(Cl)cc1`, -4.01%.
Under `COc1ccccc1-c1cc(CC(C)C)nc(N)c1C#N` stands -2.21%; under `Cc1nn(-c2cc(Cl)nc(-c3ccccc3)n2)c(N)c1C#N`, 0.726%; under `O=C(c1cccnc1)N1CCC(c2c[nH]c3ccccc23)(c2c[nH]c3ccccc23)CC1`, -2.37%.
Under `COc1ccc(NC(=O)c2ccccc2C)c(N)c1` stands 5.15%; under `CC1=C(C(=O)Nc2cc(C)ccn2)C(c2ccc(F)cc2)C2=C(O)CCCC2=N1` (stereo not drawn), -4.65%; under `COc1ccc(-n2c(S)nnc2CCN2CCN(C)CC2)cc1`, 0.986%.
On to `COC(=O)[C@H](CC(C)C)NC(=O)[C@@H]1C[C@@H](O)CN1C#N`, for which the “% Inhibition @ 10 uM” value is listed as 0.744%.
Under `Cc1ccc(S(=O)(=O)N2CCN(C)CC2)c(C)c1N(C)S(=O)(=O)c1ccc(Cl)cc1` stands 2.01%.
Under `CN1CCN(CCN2CCn3c2nc2ccccc23)CC1` stands 0.147%.
For the compound `CC(=O)CC(c1ccc(Br)cc1)c1c(O)oc2ccccc2c1=O` (stereo not drawn), the “% Inhibition @ 10 uM” value was 4.88%.
As for `Cc1cc(NC(=O)Cn2nc(C(F)F)cc2C)ccc1Br`, the “% Inhibition @ 10 uM” value is 0.35%.
`Cc1ccc(-c2c(C(=O)NC3CCN(Cc4ccccc4)CC3)oc(=O)c3ccccc23)cc1`: the “% Inhibition @ 10 uM” value is 0.208%.
Under `COc1cc(-c2nc(-c3cc(C)nc4ccccc34)no2)cc(OC)c1OC` stands -6.71%; under `O=C(CSc1nc(-c2ccco2)cc(C(F)(F)F)n1)NCC1CCCO1` (stereo not drawn), 4.64%; under `Cc1cc(C)c2nc(N3CCC(C(=O)NCc4cccnc4)CC3)sc2c1`, 6.46%.
Under `Cc1ccc(NC(=O)c2ccc(S(=O)(=O)N3CCCCC3C)cc2)cc1` (stereo not drawn) stands -0.641%.
